In article PMC12677587:
Residue numbers refer to the chain shown, from its start. Results are given in words; binding and its absence hold for the method and conditions named. Binding seen in cells or lysates may run through a third protein. Some results given as binding are weak or reduced against the parent protein; the word gives no strength. For some assays here: Tags and fused reporters may be left off the sequences shown. Blank lines part the entries; values can stand above or below the binder they belong to.

Sequences of proteins named here, by UniProt entry; tags and fusion partners are left off.
UniProt Q06609: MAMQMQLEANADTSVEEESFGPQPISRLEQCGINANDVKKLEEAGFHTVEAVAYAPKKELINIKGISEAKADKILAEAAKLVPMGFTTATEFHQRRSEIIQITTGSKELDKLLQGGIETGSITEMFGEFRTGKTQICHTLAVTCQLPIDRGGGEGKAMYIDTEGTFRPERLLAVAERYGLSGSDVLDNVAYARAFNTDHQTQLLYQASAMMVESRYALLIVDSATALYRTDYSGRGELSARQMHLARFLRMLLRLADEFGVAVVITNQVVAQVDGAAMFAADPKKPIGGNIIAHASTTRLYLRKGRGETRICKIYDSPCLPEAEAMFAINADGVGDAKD

Assays:
[1] = molecular target: T1, endogenous RFWD3 (human (endogenous in HEK293T)) (UniProt Q6PCD5); test: co-IP; endogenous UHRF1 and RFWD3 in HEK293T cells overexpressing RAD51 or RAD51^R254Q
T1 sequence: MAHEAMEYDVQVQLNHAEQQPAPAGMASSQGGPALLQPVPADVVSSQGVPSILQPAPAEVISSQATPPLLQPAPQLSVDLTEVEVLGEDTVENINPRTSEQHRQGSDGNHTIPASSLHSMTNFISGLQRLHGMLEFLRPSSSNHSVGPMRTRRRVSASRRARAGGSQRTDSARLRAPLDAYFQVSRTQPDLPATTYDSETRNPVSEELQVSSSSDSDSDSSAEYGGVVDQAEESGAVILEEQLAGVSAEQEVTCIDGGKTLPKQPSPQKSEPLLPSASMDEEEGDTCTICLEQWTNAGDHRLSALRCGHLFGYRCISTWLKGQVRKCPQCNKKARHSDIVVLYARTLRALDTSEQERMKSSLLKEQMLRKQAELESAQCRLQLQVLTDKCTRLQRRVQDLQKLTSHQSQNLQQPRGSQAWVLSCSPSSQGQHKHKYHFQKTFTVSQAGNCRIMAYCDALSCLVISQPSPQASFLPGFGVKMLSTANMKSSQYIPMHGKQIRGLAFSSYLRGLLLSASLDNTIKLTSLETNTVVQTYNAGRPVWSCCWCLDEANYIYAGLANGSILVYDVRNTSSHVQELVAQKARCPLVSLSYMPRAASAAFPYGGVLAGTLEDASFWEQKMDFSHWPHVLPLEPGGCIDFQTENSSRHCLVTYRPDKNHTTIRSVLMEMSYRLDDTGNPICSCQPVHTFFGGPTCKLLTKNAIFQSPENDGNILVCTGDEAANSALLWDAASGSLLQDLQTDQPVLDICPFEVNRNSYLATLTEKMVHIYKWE

[2] = molecular target: T1, endogenous RFWD3 (human (endogenous in HEK293T)); test: co-IP; endogenous proteins in HEK293T; NETN lysate, antibodies overnight at 4 °C, protein A/G agarose beads; washes with 200 mM NaCl; also in cells depleted of RAD51, RFWD3 or PP4C
[3] = molecular target: endogenous RAD51 (human (endogenous in HEK293T)) (UniProt Q06609); test: as above
FLAG-PP4R3A = molecular target: T2, FLAG-PP4R3A (UniProt Q6IN85); test: co-IP; ectopically expressed tagged proteins in HEK293T; lysis in NETN buffer (20 mM Tris-HCl pH 7.5, 1 mM EDTA, 100 mM NaCl, 0.5% NP-40); anti-FLAG or anti-HA affinity beads, 3 h, 4 °C; washes with NETN with 200 mM NaCl; western blotting
T2 sequence: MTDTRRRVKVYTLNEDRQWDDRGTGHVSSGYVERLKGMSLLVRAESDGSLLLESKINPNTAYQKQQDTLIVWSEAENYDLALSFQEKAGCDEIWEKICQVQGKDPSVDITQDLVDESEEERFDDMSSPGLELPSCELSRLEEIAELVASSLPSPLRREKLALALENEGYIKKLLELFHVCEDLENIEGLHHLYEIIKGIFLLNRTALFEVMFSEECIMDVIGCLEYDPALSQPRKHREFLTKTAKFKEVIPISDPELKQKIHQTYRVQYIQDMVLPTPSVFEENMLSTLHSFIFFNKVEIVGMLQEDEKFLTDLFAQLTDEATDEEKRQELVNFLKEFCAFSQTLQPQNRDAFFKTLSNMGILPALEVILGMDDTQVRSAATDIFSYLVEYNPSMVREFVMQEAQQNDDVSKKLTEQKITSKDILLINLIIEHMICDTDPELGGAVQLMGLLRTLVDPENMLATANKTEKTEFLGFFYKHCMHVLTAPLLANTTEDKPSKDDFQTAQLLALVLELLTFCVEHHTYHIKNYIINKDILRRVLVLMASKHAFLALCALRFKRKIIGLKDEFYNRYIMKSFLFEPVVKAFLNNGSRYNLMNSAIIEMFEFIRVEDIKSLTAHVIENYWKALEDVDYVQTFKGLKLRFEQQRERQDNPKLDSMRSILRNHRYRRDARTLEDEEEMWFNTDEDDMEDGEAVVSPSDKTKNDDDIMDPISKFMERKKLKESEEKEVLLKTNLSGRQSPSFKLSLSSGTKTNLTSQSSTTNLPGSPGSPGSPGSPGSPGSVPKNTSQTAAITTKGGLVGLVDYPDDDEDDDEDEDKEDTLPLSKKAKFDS

binding [1]: binds
binding [2]: binds
binding [3]: binds
B1: endogenous UHRF1 (protein, UniProt Q96T88 1-793)
chain: MWIQVRTMDGRQTHTVDSLSRLTKVEELRRKIQELFHVEPGLQRLFYRGKQMEDGHTLFDYEVRLNDTIQLLVRQSLVLPHSTKERDSELSDTDSGCCLGQSESDKSSTHGEAAAETDSRPADEDMWDETELGLYKVNEYVDARDTNMGAWFEAQVVRVTRKAPSRDEPCSSTSRPALEEDVIYHVKYDDYPENGVVQMNSRDVRARARTIIKWQDLEVGQVVMLNYNPDNPKERGFWYDAEISRKRETRTARELYANVVLGDDSLNDCRIIFVDEVFKIERPGEGSPMVDNPMRRKSGPSCKHCKDDVNRLCRVCACHLCGGRQDPDKQLMCDECDMAFHIYCLDPPLSSVPSEDEWYCPECRNDASEVVLAGERLRESKKKAKMASATSSSQRDWGKGMACVGRTKECTIVPSNHYGPIPGIPVGTMWRFRVQVSESGVHRPHVAGIHGRSNDGAYSLVLAGGYEDDVDHGNFFTYTGSGGRDLSGNKRTAEQSCDQKLTNTNRALALNCFAPINDQEGAEAKDWRSGKPVRVVRNVKGGKNSKYAPAEGNRYDGIYKVVKYWPEKGKSGFLVWRYLLRRDDDEPGPWTKEGKDRIKKLGLTMQYPEGYLEALANREREKENSKREEEEQQEGGFASPRTGKGKWKRKSAGGGPSRAGSPRRTSKKTKVEPYSLTAQQSSLIREDKSNAKLWNEVLASLKDRPASGSPFQLFLSKVEETFQCICCQELVFRPITTVCQHNVCKDCLDRSFRAQVFSCPACRYDLGRSYAMQVNQPLQTVLNQLFPGYGNGR

binding (FLAG-PP4R3A): no binding
B2: UHRF1^FP2A-HA (protein, UniProt Q96T88-1 1-793)
chain: B1 chain with F637A, P640A

binding (FLAG-PP4R3A): binds
B3: UHRF1-HA (protein, UniProt Q96T88-1 1-793)
chain: B1 chain
